# Reference: the supplement of paper PMC5499739
# In all, about 16,000 sequences were measured (“Z-score”: median about -0.37, highest 2% from about 3.1 on). This is one part of the list.
# System: RBM10 RRM1-ZnF-RRM2 (GST-tagged construct)
# Test: RNAcompete 7-mer binding Z-score; higher = stronger binding preference
# Description: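 RNAcompete: 20 pmol GST-tagged RBM10 RNA-binding constructs were incubated with a designed RNA pool of about 241,000 sequences up to 41 nt (1.5 nmol) on glutathione beads for 30 min at 4 °C and washed. Bound RNAs were identified by microarray hybridisation. Each RNA 7-mer is scored by a one-sided Z-score of its enrichment, computed over probes that contain the 7-mer within longer pool sequences.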
row,Sequence,RNAcompete 7-mer binding Z-score
1,CAUGCCU,-0.846
2,GAAGGUG,4.37
3,CUCUAAA,-0.668
4,ACGUAGU,0.0896
5,CCACCUU,-0.908
6,GGGCCGU,0.64
7,CCUGGGA,0.224
8,ACAUUGA,-0.333
9,GGUUCGU,0.483
10,GGCGUCU,-0.122
11,CAAAGCU,-0.457
12,GCGUUUU,-0.475
13,UCCAGCC,-0.799
14,GGCUGUU,-0.38
15,GUAUGUG,0.945
16,AGCCGCC,-0.468
17,AGAAUAA,-0.22
18,UAAUAGA,-0.00877
19,UUUAAUU,-0.602
20,AAUCCGU,-0.679
21,GAAACGA,0.483
22,AGGAACA,0.935
23,UUAAGUA,-0.384

row,Sequence,RNAcompete 7-mer binding Z-score
1,CUUCCGU,-0.752
2,CGAGCCG,-0.296
3,UACGGUU,0.181
4,CUUGAAU,-0.846
5,AGGCGCG,0.472
6,ACAUAGC,-0.34
7,CUCGUGA,-0.675
8,ACCCCAA,-0.617
9,UCCGAUU,-0.777
10,GAGAUAU,0.37
11,UGUGGGC,1.83
12,UCCUCGG,-0.581
13,GUAAUUU,-0.42
14,AAACUUC,-0.621
15,AGUAGAA,0.916
16,GAUGACC,-0.0415
17,AGCGGAC,1.1
18,AUACUGU,-0.675
19,UGUAGUC,-0.369
20,CCCCUUU,-0.836
21,ACUAGAA,-0.187
22,GCCCAUA,-0.828
23,UUUAUUA,-0.628

row,Sequence,RNAcompete 7-mer binding Z-score
1,GGACUGC,0.0969
2,CCGGCCG,-0.584
3,UCCCGGG,-0.0161
4,GUAAACU,-0.0853
5,GAUUACA,0.253
6,CGCCCAU,-0.945
7,AUAUCAA,-0.333
8,AAAGAUU,-0.384
9,UAUGACC,-0.672
10,CUCUUGC,-0.908
11,GCUGGGG,2.46
12,CGUCGAC,-0.504
13,GAAUUAC,-0.347
14,GUCAUGA,0.0167
15,GUUCGAA,-0.0925
16,CUCGCGC,-0.821
17,GCCAGCC,-0.613
18,UCUUUAU,-0.763
19,ACCAAAA,-0.428
20,UUUAAGU,-0.639
21,GCGAGCU,0.177
22,GGGCUGG,2.01
23,UUUACGA,-0.577

row,Sequence,RNAcompete 7-mer binding Z-score
1,UUCUGUC,-0.806
2,UUGGCGU,0.279
3,GUCUACC,-0.442
4,GGCGUCC,-0.0452
5,GUGAUUU,-0.406
6,UUCGUUA,-0.646
7,AAUGAUC,-0.431
8,ACCCUUA,-1.07
9,CUAAGCA,-0.657
10,AUCGCCU,-1.02
11,GCUUAGA,-0.398
12,AAUGGAA,3.27
13,CGCGAAG,-0.278
14,UUCGAAU,-0.53
15,UCCACGG,-0.129
16,GAGAUGA,1.2
17,CGAACCG,-0.504
18,CUUCAUC,-0.905
19,ACUCGUU,-0.846
20,UCCCUCU,-0.748
21,CAUAAAG,-0.362
22,AUCAGUA,0.228
23,CGGGAGC,1.42

row,Sequence,RNAcompete 7-mer binding Z-score
1,UUAGCGG,0.294
2,GUCGGUC,-0.162
3,ACGGGCG,1.52
4,CUACAAC,-0.562
5,GCGCCUU,-0.836
6,UCUUCAU,-0.81
7,GGCCAGA,0.177
8,GGCCGGG,1.32
9,UCCUACC,-0.69
10,UUCUGUU,-0.781
11,UGGGCCU,0.13
12,AAAAGCU,-0.533
13,AUCGAGA,0.352
14,UAGGUAU,0.894
15,UAUGCCA,-0.646
16,AUUCAUA,-0.522
17,UGGUCCC,-0.242
18,AAAGCCC,-0.803
19,UUAAUCA,-0.417
20,ACUAAUG,-0.333
21,UCGGAAG,0.472
22,AUGCCCG,-0.646
23,CUGAUUG,-0.471

row,Sequence,RNAcompete 7-mer binding Z-score
1,UUUCCAA,-0.675
2,GGUUGGG,4.42
3,CCCGAGG,0.192
4,GGUGACC,0.567
5,CUUCGUC,-0.712
6,UAUCCUG,-0.887
7,ACCAGUU,-0.723
8,AAAGAAA,0.108
9,GUACUUA,-0.267
10,GCAAUUG,0.363
11,AAAUUCA,-0.435
12,UGAACGA,0.337
13,AUAAUUG,-0.326
14,UUGGUCG,0.0859
15,GCCCAGA,-0.577
16,GAUGCAC,-0.22
17,CUAUUAU,-0.785
18,GCUAUAC,-0.562
19,GAUCGUU,-0.464
20,ACGUUGG,0.548
21,GUAUGCG,0.687
22,GGGGUCC,1.28
23,UGUCGUU,-0.577

row,Sequence,RNAcompete 7-mer binding Z-score
1,CUGGCCU,-0.89
2,GCGAGGU,1.82
3,UGAAGUU,-0.0816
4,GAGGUCC,0.0896
5,AAACCUU,-0.857
6,UGAUCCA,-0.515
7,AGGUGCG,1.87
8,UUGUUAA,-0.65
9,GGUCCCU,-0.519
10,AGGAAUC,0.0422
11,UAGCUAU,-0.672
12,CAAGCGA,0.151
13,GCUAACU,-0.384
14,AGCCAUC,-0.777
15,CAGCGCC,-0.358
16,CUAAUGA,-0.613
17,GUCUUGC,-0.861
18,UAUACCA,-0.479
19,AUUAUUG,-0.344
20,ACUUGCG,-0.734
21,CCGUUCA,-0.683
22,UGGGCCC,0.253
23,UUGUCAA,-0.741

row,Sequence,RNAcompete 7-mer binding Z-score
1,CUCCGCU,-0.734
2,CGUCCCG,-0.595
3,UUUAUGU,-0.541
4,GAUAGAC,0.213
5,CAUACCG,-0.551
6,UUUGCGU,-0.628
7,AGCAAAG,0.771
8,AUCUGAA,-0.643
9,GCUUGAC,-0.621
10,CUCAUGA,-0.701
11,GGCGGGU,2.57
12,ACUGCAU,-0.683
13,UUGCUCC,-0.843
14,AGCUUUA,-0.657
15,CCUAAUG,-0.752
16,ACUUUUG,-0.887
17,UAAGGAA,1.66
18,CUUGACA,-0.774
19,CCUAUCG,-0.817
20,AGUCCGA,-0.53
21,CCAGCAA,-0.723
22,GCAUUCG,-0.493
